Test results taken from publication PMC12136788.
Some of the results follow.

T1: UNK ZnF1-3 (human, UniProt Q9C0B0 31-174)
T1 sequence: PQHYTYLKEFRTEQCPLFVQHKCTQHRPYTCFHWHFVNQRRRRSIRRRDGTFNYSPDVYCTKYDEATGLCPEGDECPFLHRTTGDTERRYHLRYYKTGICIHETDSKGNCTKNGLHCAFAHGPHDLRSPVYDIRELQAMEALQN

B1: chr5:33455709:33455710:+_ENSG00000113407_ENST00000502553|hu_hu|FALSE|FALSE (ssRNA)
RNA: GGGAGUUCUACAGUCCGACGAUCAGCUUGUUUUUCUUUAAUGAUUUUCUUACACAAAGCCUCCAGAGAAGAGAAAUCAUUGCUAGACACACCCCCUUCUUCGAGGUACAUGUCAUAAUAGAAUCCAUUUUCUAUUGGCGGACCCAACAGAGGAUUGAGCAUCA
B2: chr1:163112212:163112213:-_ENSG00000143248_ENST00000313961|hu_hu|hu_hu_hu_mus_False|1_38 (ssRNA)
RNA: GGGAGUUCUACAGUCCGACGAUCUUUUAUUAUCAGUAAGAGUGAGUUACAUACUAGGCAAAGUAUUGGAUACAAUAAUCAGGAAACAAACACUAUUUUUCUUGAAUUUAAAACUUUAUGAGCGAAGUGCUGGCACAGGAUUUACAACAGAGGAUUGAGCAUCA
B3: chr4:17845017:17845018:+_ENSG00000109805_ENST00000514176|hu_mus|hu_hu_hu_mus_False|48_88 (ssRNA)
RNA: GGGAGUUCUACAGUCCGACGAUCGCUCUCUUAACUUGUAUCUUCAUGAGAAAUUGGUGCAAGGUUAAGUUUACUUUUCUGUAGCGCGCGGUUUUGGGCUCGUCUGGGUAAUCUCAUCUUCAUUUCUGAUGGUGGUUCAUGAUCCAACAGAGGAUUGAGCAUCA
B4: chr4:117558906:117558907:-_ENSMUSG00000033379_ENSMUST00000036380|mus_hu|FALSE|FALSE (ssRNA)
RNA: GGGAGUUCUACAGUCCGACGAUCUGGAGGAGCCGGUAAUAUAGAUGCCCCAGGCUGCCCCAACCACAGACAGGGAGAUAGCUAGGCCAAUGCCCAGGUUGGACCACAUGAAGGGCGAAGUCUCCGUCAGGAACCUGUUGUGGACAACAGAGGAUUGAGCAUCA
B5: chr9:33280828:33280829:+_ENSG00000086065_ENST00000223500|hu_hu|FALSE|FALSE (ssRNA)
RNA: GGGAGUUCUACAGUCCGACGAUCUCCUAGUCCCAUAAUAUGUGUUUGUUUUACAAGAUAUGCUUGAAUGAUGCAAAUCUAUGAAGCAGGGAUCUGUGGCAAUCCAAAUUCAUCCACCAGAACUCCAUCCUUGUUUUUUGUAUCCAACAGAGGAUUGAGCAUCA
B6: 45071674_45071794_994_CDS_ENSMUSG00000048232_ENSMUST00000052236|mouse|control|control (ssRNA)
RNA: GGGAGUUCUACAGUCCGACGAUCAAUGUCACAGGUCCUUGGGCUCCAGGCCUGGUCCCGACUCUCUAAGUCCAAGGACAUUAAAAAGUCAUGGUCCUCUGCGGGGAGAAAGAUGGGUGAGGACUUGAUAAGGCCCAGCAGGUACAACAGAGGAUUGAGCAUCA
B7: chr11:103723314:103723315:-_ENSMUSG00000034187_ENSMUST00000103075|mus_mus|FALSE|FALSE (ssRNA)
RNA: GGGAGUUCUACAGUCCGACGAUCGACCAGCAGCUCUCCGUCAUCUAGGACUCGGGUCACGGGGUCACCCCACUUGAUGAUCCCAUUCAUAAUGUAACUUGCAUAAUCCUCUUGGUUGGUGCCAAAUGCUGGUUUGAUAUCGUUCAACAGAGGAUUGAGCAUCA
B8: chr17:65740002:65740003:+_ENSG00000130935_ENST00000581375|hu_hu|hu_hu_hu_mus_False|18_108 (ssRNA)
RNA: GGGAGUUCUACAGUCCGACGAUCAACCCGUUCUUGCUCCCUGGACGAACAGGAAGAUUCAUAUUAAAAAAAAUAUAUAUCCAUCAAGUUAGGUGUGGUGGCCACACCUUUACUCCCCACUUCAAUUGAGGUGGAUCUCUGAGUCAACAGAGGAUUGAGCAUCA
B9: chr3:104804989:104804990:-_ENSMUSG00000062127_ENSMUST00000098763|mus_hu|FALSE|FALSE (ssRNA)
RNA: GGGAGUUCUACAGUCCGACGAUCACACAUCAUUACAAUCUGUUGGCCAGUAACAGCUUUUGCAACAUGGGUUAAUACUAAAAUUGUGAAUCAUGGAACUUUUACUUAGCACACACACACACAAUCUACAGCAAACUUAAAUACCAACAGAGGAUUGAGCAUCA
B10: 79558433_79558884_1653_CDS_ENSMUSG00000042524_ENSMUST00000046259|mouse|control|control (ssRNA)
RNA: GGGAGUUCUACAGUCCGACGAUCAUCUCUCUGCAGGAGCCCGCUGCGCGCACCCCUGUCUCCAAGAAGGAACUGCCUGAUCCAGUCAGGGAACUGGGAUUCCACAUCAGCCCUGGCAGCCUGGAUCUUCUGUGGCAGCAGGCCCAACAGAGGAUUGAGCAUCA
B11: chr1:39494447:39494448:+_ENSG00000168653_ENST00000372967|hu_mus|hu_hu_hu_mus_False|8_58 (ssRNA)
RNA: GGGAGUUCUACAGUCCGACGAUCGCACCGAGCGGCGUUCUUAUAGGGCUGUUCUGCGCUUAGGAACAUAAAGUGCCGAUCUAUGUUGAUGCCCAGCUUUUUCUGUAUGUCAAGGAAAGGCAUGGCUGAUGCUCGUGCUUGUCACAACAGAGGAUUGAGCAUCA
B12: chr16:45382771:45382772:-_ENSMUSG00000022661_ENSMUST00000163230|mus_hu|FALSE|FALSE (ssRNA)
RNA: GGGAGUUCUACAGUCCGACGAUCCUGGGUCAUGUUAUAAGACAAAUGGACAGGGAGGGCAUGCUUCUCAAAAAAUGUGAGCUAUUGUCUAAGACUAACAAUAUUUAUCUAGCUAUAAAAAUAAGUUAAAUGAAUAAGUUAAGACAACAGAGGAUUGAGCAUCA
B13: chr16:94690093:94690094:+_ENSMUSG00000040785_ENSMUST00000117648|mus_hu|mus_mus_mus_hu_True|58_68 (ssRNA)
RNA: GGGAGUUCUACAGUCCGACGAUCGGGCUGGGAUGACGGACACACAGCCUCGAUUCCAGGGGGAAAAAAAAAUAGCCAAUACUAAUUAAAAAGUGUUAAUGAUUUUUGAAAAUCAGAUUACAUCUAUAAAAGAUGAAAAGCAAACAACAGAGGAUUGAGCAUCA
B14: chr10:35314101:35314102:-_ENSG00000108094_ENST00000537177|hu_hu|motif|central (ssRNA)
RNA: GGGAGUUCUACAGUCCGACGAUCUUCACCUGUACACAGAUAAUGUAACCAUGUAAGUUUCCUUCCACUGAAAUGUUGGCGGUAAAAUAAUUCAAACAUCUGUACACUUUUUUCUAAUUCCUGGGGAAUUGCAAACGUAGAUGACAACAGAGGAUUGAGCAUCA
B15: chr7:138056749:138056750:+_ENSMUSG00000040268_ENSMUST00000120441|mus_mus|FALSE|FALSE (ssRNA)
RNA: GGGAGUUCUACAGUCCGACGAUCGCAGUUUAUUCUCAAGUCAUUACAGUGUUCCACCGACUGGACAUACAGAGACAGCAGGGUAACAGUAAACAUUAGGAGGCACAUUCCUGUUCUGAAAGGAGAUACAUUAUACACACAGGGCAACAGAGGAUUGAGCAUCA
B16: 60531726_60532136_2099_CDS_ENSMUSG00000002812_ENSMUST00000002889|mouse|control|control (ssRNA)
RNA: GGGAGUUCUACAGUCCGACGAUCCUGCACCAGGAGUGUGAUUUCCGCCUUCCCUUUCCGCUCAUUCUUGUUUAUUUUCUCUGCAAAGAGCCUGGCCUUAGUCGUGUUACUCAGUGUGGCCUGGGCCCCCCGCCACACAUAAAUCAACAGAGGAUUGAGCAUCA
B17: chr4:115894766:115894767:+_ENSMUSG00000028698_ENSMUST00000030464|mus_hu|mus_mus_mus_hu_True|8_18 (ssRNA)
RNA: GGGAGUUCUACAGUCCGACGAUCUUCCACACGGAAAUGUACUUCGGGUUUUCCAACGGCCAGUACCAGUCCGGCCAAACUACCCGAACAGGGUCCUCCCCCUCUCUCCUACAGAACUAAAGCACCCAACAAAAUACUUUCAAGCAACAGAGGAUUGAGCAUCA
B18: chr19:36967278:36967279:+_ENSMUSG00000024811_ENSMUST00000025729|mus_mus|FALSE|FALSE (ssRNA)
RNA: GGGAGUUCUACAGUCCGACGAUCAUGGAAUGUGAUACAAGUAGACACUCAGAUGGGCAGAACACUACACACACACACAUACACAAAUUAAAUUUCACCUCAAAAAAAAAUCACAAGGCAAAAGAAAAAGCAAUUCCAUUAUUACAACAGAGGAUUGAGCAUCA
B19: chr1:39494564:39494565:+_ENSG00000168653_ENST00000372967|hu_hu|hu_hu_hu_mus_True|38_58 (ssRNA)
RNA: GGGAGUUCUACAGUCCGACGAUCAUGCAUUCGCCUCAUCGUUUUGUACCGAAGCAAGCACUCUUCGAAGUCAUCGAAUUCUAUCUUGCACUCCUUUUCUGCCCGAGUCCCACCGAUCCCGUGUGCACACUCUAUCCACUCUUUCAACAGAGGAUUGAGCAUCA
B20: chr12:120565580:120565581:-_ENSG00000089154_ENST00000300648|hu_hu|FALSE|FALSE (ssRNA)
RNA: GGGAGUUCUACAGUCCGACGAUCUGGAGGAGGCAAUUUUCAGUUGUGUGUGGGUUUGAUUUAAGGCUUUGGCUGUGGUCUAUUGAUAUUAAAAUACUUUCUGGGAACGCCAUCUUCCAAGCUCCCCAUUGGAACAAAUGUAUUCAACAGAGGAUUGAGCAUCA
B21: chr15:98780342:98780343:-_ENSMUSG00000072235_ENSMUST00000097014|mus_hu|FALSE|FALSE (ssRNA)
RNA: GGGAGUUCUACAGUCCGACGAUCAACCCAUCACAGAAAUGGACAGCUUGGGUCUGUAACAAAGCAUUCAUGUUUUAGAGCAUAGGUCAGUAAUUGUAUAUGAGAGCAUACACUGCUACAUACAAAUUAACUGAUCAGACCACACAACAGAGGAUUGAGCAUCA
B22: chr17:65740002:65740003:+_ENSG00000130935_ENST00000581375|hu_hu|hu_hu_hu_mus_False|1_48 (ssRNA)
RNA: GGGAGUUCUACAGUCCGACGAUCAACAAAUCUUUCUUCCCUGGACGAACAGGAAGAUUCAUAUUAAAAAAAAUAUAUAUCCAUCAAGGAGAAUUGAGUGGCCACACCUUUACUCCCAGCACUUUGGGAGGUGGAUCCUCUAUUCAACAGAGGAUUGAGCAUCA

These binders were tested against T1, UNK ZnF1-3 (assay: nsRBNS (natural sequence RNA bind-n-seq); RBNS binding buffer (assumed for nsRBNS): 25 mM Tris pH 7.5, 150 mM KCl, 3 mM MgCl2, 0.01% Triton X-100, 500 ug/ml BSA, 20 U/ml SUPERase-In, 4 C; UNK is unkempt and MSI1 is Musashi-1; names of the RNAs are library labels; protein concentration not given here; high values mean tight binding).
For B1, the binding signal was 1.22 enrichment R. In the case of B2, the binding signal is reported as 1.33 enrichment R. Binder B3 has a binding signal of 0.367 enrichment R. In the case of B4, the binding signal is reported as 1.05 enrichment R. B5 showed a binding signal of 1.1 enrichment R. Work on B6 yielded a binding signal of 1.02 enrichment R. Binder B7 has a binding signal of 0.754 enrichment R. B8 showed a binding signal of 0.932 enrichment R. For B9, the binding signal was 1.88 enrichment R. For B10, the binding signal was 0.704 enrichment R. B11 was tested, and the binding signal was 0.781 enrichment R. For B12, the binding signal was 2.02 enrichment R. B13 was tested, and the binding signal was 1.91 enrichment R. In the case of B14, the binding signal is reported as 0.949 enrichment R. B15 gave a binding signal of 1.74 enrichment R. In the case of B16, the binding signal is reported as 0.682 enrichment R. Binder B17 has a binding signal of 1.25 enrichment R. B18 was tested, and the binding signal was 1.85 enrichment R. Binder B19 has a binding signal of 0.706 enrichment R. B20 was tested, and the binding signal was 1.61 enrichment R. With B21 the binding signal was 0.901 enrichment R. For B22, the binding signal was 1.82 enrichment R.
